This passage reports cell count results from the supplement of paper PMC4604168 (melanoma cell lines).

The list shows a part of the results. Repeats are few or missing, and single values can be far off.
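Further: cells treated in 1,536-well plates, then fixed and DAPI-stained, with nuclei counted from automated high-throughput microscope images.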

This experiment has as its system MeWo. As to the kind of experiment: cell count relative to DMSO control; melanoma cells; higher = more viable cells. As to conditions: library dose: standard library concentration; 72 h.
As for `Cc1cc(Nc2cc(N3CCN(C)CC3)nc(Sc3ccc(NC(=O)C4CC4)cc3)n2)n[nH]1` [Tozasertib] + CC(=O)O[C@@]12CO[C@@H]1C[C@H](O)[C@@]1(C)C(=O)[C@H](O)C3=C(C)[C@@H](OC(=O)[C@H](O)[C@@H](NC(=O)OC(C)(C)C)c4ccccc4)C[C@@](O)([C@@H](OC(=O)c4ccccc4)[C@H]21)C3(C)C [Docetaxel] (first compound 0.03 µM, partner dose 0.0005 µM), the cell count worked out at 26.5%.
Next, `CC[C@]1(O)C[C@H]2CN(CCc3c([nH]c4ccccc34)[C@@](C(=O)OC)(c3cc4c(cc3OC)N(C=O)[C@H]3[C@@](O)(C(=O)OC)[C@H](OC(C)=O)[C@]5(CC)C=CCN6CC[C@]43[C@@H]65)C2)C1` [vincristine] + Oc1nc(-c2ccc(C(F)(F)F)cc2)nc2c1CSCC2 [XAV939] (first compound 0.0005 µM, partner dose 10 µM): 58.8%; `CC[C@]1(O)C[C@H]2CN(CCc3c([nH]c4ccccc34)[C@@](C(=O)OC)(c3cc4c(cc3OC)N(C=O)[C@H]3[C@@](O)(C(=O)OC)[C@H](OC(C)=O)[C@]5(CC)C=CCN6CC[C@]43[C@@H]65)C2)C1` [vincristine] + c1cc(-c2cnn3cc(-c4ccc(OCCN5CCCCC5)cc4)cnc23)ccn1 [Dorsomorphin] (first compound 0.0005 µM, partner dose 2 µM): 25.4%.
`Cc1cc(Nc2cc(N3CCN(C)CC3)nc(Sc3ccc(NC(=O)C4CC4)cc3)n2)n[nH]1` [Tozasertib] + COc1ccc(-c2ccc3c(N4CCOCC4)nc(N4C[C@@H](C)O[C@@H](C)C4)nc3n2)cc1CO [KU0063794] (first compound 0.03 µM, partner dose 0.1 µM) gave a cell count of 58.7%.
Next, `CC[C@]1(O)C[C@H]2CN(CCc3c([nH]c4ccccc34)[C@@](C(=O)OC)(c3cc4c(cc3OC)N(C=O)[C@H]3[C@@](O)(C(=O)OC)[C@H](OC(C)=O)[C@]5(CC)C=CCN6CC[C@]43[C@@H]65)C2)C1` [vincristine] + O=C(Nc1cc(C(F)(F)F)cc(C(F)(F)F)c1)c1cc(Cl)ccc1O [IMD0354] (first compound 0.0005 µM, partner dose 0.08 µM): 98.1%; `N#CC[C@H](C1CCCC1)n1cc(-c2ncnc3[nH]ccc23)cn1` [ruxolitinib] + Nc1cccc2c1CN(C1CCC(=O)NC1=O)C2=O [lenalidomide] (first compound 5 µM, partner dose 5 µM): 95.9%.
Next, `CC[C@]1(O)C[C@H]2CN(CCc3c([nH]c4ccccc34)[C@@](C(=O)OC)(c3cc4c(cc3OC)N(C=O)[C@H]3[C@@](O)(C(=O)OC)[C@H](OC(C)=O)[C@]5(CC)C=CCN6CC[C@]43[C@@H]65)C2)C1` [vincristine] + COCC[n+]1c2c(n(Cc3cnccn3)c1C)C(=O)c1ccccc1C2=O [YM155] (first compound 0.0005 µM, partner dose 0.002 µM): 44.2%.
The molecule `Cc1cc(Nc2cc(N3CCN(C)CC3)nc(Sc3ccc(NC(=O)C4CC4)cc3)n2)n[nH]1` [Tozasertib] + O=C(CCCCCCC(=O)Nc1ccccc1)NO [vorinostat] (first compound 0.03 µM, partner dose 0.4 µM) had a cell count of 72.8%.
As for `N#CC[C@H](C1CCCC1)n1cc(-c2ncnc3[nH]ccc23)cn1` [ruxolitinib] + CN(c1ncccc1CNc1nc(Nc2ccc3c(c2)CC(=O)N3)ncc1C(F)(F)F)S(C)(=O)=O [PF562271] (first compound 5 µM, partner dose 0.4 µM), the cell count worked out at 90.7%.
In turn, `N#CC[C@H](C1CCCC1)n1cc(-c2ncnc3[nH]ccc23)cn1` [ruxolitinib] + CC(=O)O[C@@]12CO[C@@H]1C[C@H](O)[C@@]1(C)C(=O)[C@H](O)C3=C(C)[C@@H](OC(=O)[C@H](O)[C@@H](NC(=O)OC(C)(C)C)c4ccccc4)C[C@@](O)([C@@H](OC(=O)c4ccccc4)[C@H]21)C3(C)C [Docetaxel] (first compound 5 µM, partner dose 0.0005 µM) returned a cell count of 20.2%.
Next, `N#CC[C@H](C1CCCC1)n1cc(-c2ncnc3[nH]ccc23)cn1` [ruxolitinib] + C=C(c1ccc(C(=O)O)cc1)c1cc2c(cc1C)C(C)(C)CCC2(C)C [Bexarotene] (first compound 5 µM, partner dose 10 µM): 72.2%.
As to `CC[C@]1(O)C[C@H]2CN(CCc3c([nH]c4ccccc34)[C@@](C(=O)OC)(c3cc4c(cc3OC)N(C=O)[C@H]3[C@@](O)(C(=O)OC)[C@H](OC(C)=O)[C@]5(CC)C=CCN6CC[C@]43[C@@H]65)C2)C1` [vincristine] + O=S(=O)(c1ccccc1)N(CC(F)(F)F)c1ccc(C(O)(C(F)(F)F)C(F)(F)F)cc1 [T0901317] (first compound 0.0005 µM, partner dose 7 µM), the cell count was determined as 48.2%.
On to `Cc1cc(Nc2cc(N3CCN(C)CC3)nc(Sc3ccc(NC(=O)C4CC4)cc3)n2)n[nH]1` [Tozasertib] + COc1ccc(C2=N[C@@H](c3ccc(Cl)cc3)[C@@H](c3ccc(Cl)cc3)N2C(=O)N2CCNC(=O)C2)c(OC(C)C)c1 [Nutlin-3] (first compound 0.03 µM, partner dose 0.5 µM), for which the cell count was determined as 77.7%.
Next, `CC[C@]1(O)C[C@H]2CN(CCc3c([nH]c4ccccc34)[C@@](C(=O)OC)(c3cc4c(cc3OC)N(C=O)[C@H]3[C@@](O)(C(=O)OC)[C@H](OC(C)=O)[C@]5(CC)C=CCN6CC[C@]43[C@@H]65)C2)C1` [vincristine] + CS(=O)(=O)c1ccc(C(=O)Nc2ccc(Cl)c(-c3ccccn3)c2)c(Cl)c1 [vismodegib] (first compound 0.0005 µM, partner dose 5 µM): 80.1%; `CC[C@]1(O)C[C@H]2CN(CCc3c([nH]c4ccccc34)[C@@](C(=O)OC)(c3cc4c(cc3OC)N(C=O)[C@H]3[C@@](O)(C(=O)OC)[C@H](OC(C)=O)[C@]5(CC)C=CCN6CC[C@]43[C@@H]65)C2)C1` [vincristine] + C#Cc1cccc(Nc2ncnc3cc(OCCOC)c(OCCOC)cc23)c1 [erlotinib] (first compound 0.0005 µM, partner dose 4 µM): 23.5%.
Next, `Cc1cc(Nc2cc(N3CCN(C)CC3)nc(Sc3ccc(NC(=O)C4CC4)cc3)n2)n[nH]1` [Tozasertib] + Cc1cn(-c2cc(NC(=O)c3ccc(C)c(Nc4nccc(-c5cccnc5)n4)c3)cc(C(F)(F)F)c2)cn1 [nilotinib] (first compound 0.03 µM, partner dose 1 µM): 82.9%.
Take `Cc1cc(Nc2cc(N3CCN(C)CC3)nc(Sc3ccc(NC(=O)C4CC4)cc3)n2)n[nH]1` [Tozasertib] + O=C(O)C(=O)Nc1sc2c(c1C(=O)O)CCNC2 [TCS401] (first compound 0.03 µM, partner dose 8.33333 µM): the cell count amounted to 80.9%.
Take `Cc1cc(Nc2cc(N3CCN(C)CC3)nc(Sc3ccc(NC(=O)C4CC4)cc3)n2)n[nH]1` [Tozasertib] + O=S(=O)(c1ccccc1)N(CC(F)(F)F)c1ccc(C(O)(C(F)(F)F)C(F)(F)F)cc1 [T0901317] (first compound 0.03 µM, partner dose 7 µM): the cell count amounted to 67.6%.
`CC[C@]1(O)C[C@H]2CN(CCc3c([nH]c4ccccc34)[C@@](C(=O)OC)(c3cc4c(cc3OC)N(C=O)[C@H]3[C@@](O)(C(=O)OC)[C@H](OC(C)=O)[C@]5(CC)C=CCN6CC[C@]43[C@@H]65)C2)C1` [vincristine] + O=C(/C=C/c1cccnc1)NCCCCC1CCN(C(=O)c2ccccc2)CC1 [FK866] (first compound 0.0005 µM, partner dose 0.05 µM) had a cell count of 101%.
Next, `Cc1cc(Nc2cc(N3CCN(C)CC3)nc(Sc3ccc(NC(=O)C4CC4)cc3)n2)n[nH]1` [Tozasertib] + OCCn1cc(-c2cnc3nnn(Cc4ccc5ncccc5c4)c3n2)cn1 [PF04217903] (first compound 0.03 µM, partner dose 5 µM): 69.4%; `CC[C@]1(O)C[C@H]2CN(CCc3c([nH]c4ccccc34)[C@@](C(=O)OC)(c3cc4c(cc3OC)N(C=O)[C@H]3[C@@](O)(C(=O)OC)[C@H](OC(C)=O)[C@]5(CC)C=CCN6CC[C@]43[C@@H]65)C2)C1` [vincristine] + C[C@@H]1CCN(C(=O)CC#N)C[C@@H]1N(C)c1ncnc2[nH]ccc12 [CP690550] (first compound 0.0005 µM, partner dose 5 µM): 46.7%; `Cc1cc(Nc2cc(N3CCN(C)CC3)nc(Sc3ccc(NC(=O)C4CC4)cc3)n2)n[nH]1` [Tozasertib] + CCCCCCCCCCCCCCCCCCOP(=O)([O-])OC1CC[N+](C)(C)CC1 [Perifosine] (first compound 0.03 µM, partner dose 2 µM): 96%.
Next, `CC[C@]1(O)C[C@H]2CN(CCc3c([nH]c4ccccc34)[C@@](C(=O)OC)(c3cc4c(cc3OC)N(C=O)[C@H]3[C@@](O)(C(=O)OC)[C@H](OC(C)=O)[C@]5(CC)C=CCN6CC[C@]43[C@@H]65)C2)C1` [vincristine] + CCCS(=O)(=O)Nc1ccc(F)c(C(=O)c2c[nH]c3ncc(Cl)cc23)c1F [PLX4720] (first compound 0.0005 µM, partner dose 0.4 µM): 123%; `Cc1cc(Nc2cc(N3CCN(C)CC3)nc(Sc3ccc(NC(=O)C4CC4)cc3)n2)n[nH]1` [Tozasertib] + Cc1nc(Nc2ncc(C(=O)Nc3c(C)cccc3Cl)s2)cc(N2CCN(CCO)CC2)n1 [dasatanib] (first compound 0.03 µM, partner dose 0.02 µM): 74%.
